In PubChem BioAssay (NCI):
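Test compounds were applied to cells in 96-well plates for 48 hours at 5 doses. At the TGI there is no net growth.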 The source holds more than one record for some entries. They are shown here; other results are not. There may be further records. Records of one sample usually come from different ranges of test concentrations, which the source does not state; some values may only mark the edge of a range.

Columns and labels:
Assay in all cases: NCI-60 cell line screen, 48 h
CAKI-1 renal = test system: CAKI-1 renal
COLO 205 colon = test system: COLO 205 colon
HCT-116 colon = test system: HCT-116 colon

CSCS(=O)C[C@H](CO)NC(=O)/C=C/c1c(C)[nH]c(=O)[nH]c1=O (stereo partly drawn)
TGI (CAKI-1 renal): > 100 µM and 4.94 µM
TGI (COLO 205 colon): > 40.4 µM and 3.49 µM
TGI (HCT-116 colon): > 92.7 µM and 7.56 µM
